# According to the supplement of paper PMC7826260:
# The list shows a part of the results. Each Rep nickase domain was tested in vitro on the same pool of single strands at 3 µM enzyme and 37 °C for 1 h; the strands have 90 letters, of which the middle is given. Numbers give uncut DNA relative to the enzyme-free pool, as log2; more negative means more cut, near 0 not cut, and no call is made. The scaling is to total reads; uncut strands gain when others are lost, and binding without cutting may add a little.
# How the values were obtained:
# Test in all cases: uncleaved DNA left, log2 of reads against the no-enzyme library (log2 ratio); higher = less cleavage (more negative = more Rep cleavage of the k-mer); sequences stand for … in CTCGTCCG…ACCGGAGA
# [1] = test system: T1, Rep nickase domain of Muscovy duck circovirus
# T1 sequence (residues 1-111, tag not shown): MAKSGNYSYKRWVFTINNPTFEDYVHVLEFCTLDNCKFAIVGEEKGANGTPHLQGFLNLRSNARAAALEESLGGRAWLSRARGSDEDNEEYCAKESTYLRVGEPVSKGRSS
# Description: (§1)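 A pool of 90-nt single-stranded DNAs with seven random bases just before the constant AC of the nick site (name = the seven bases) was cut by 3 µM recombinant His6-SUMO-tagged Rep nickase domain (300 nM DNA, 50 mM HEPES pH 8.0, 50 mM NaCl, 1 mM MnCl2, 1 h, 37 °C, three replicates). Uncut DNA was amplified and sequenced.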
# [2] = test system: T2, Rep nickase domain of banana bunchy top virus
# T2 sequence (residues 1-94, tag not shown): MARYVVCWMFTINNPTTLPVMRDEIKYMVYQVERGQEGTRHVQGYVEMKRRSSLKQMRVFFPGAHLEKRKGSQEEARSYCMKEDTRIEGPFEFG
# Description: as §1
# [3] = test system: T3, Rep nickase domain of cabbage leaf curl virus
# T3 sequence (residues 1-116, tag not shown): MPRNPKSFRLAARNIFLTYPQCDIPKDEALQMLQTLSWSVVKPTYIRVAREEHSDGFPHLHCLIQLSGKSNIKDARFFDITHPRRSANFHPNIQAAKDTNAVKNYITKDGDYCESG
# Description: as §1
# [4] = test system: T4, Rep nickase domain of chickpea chlorotic dwarf virus
# T4 sequence (residues 1-124, tag not shown): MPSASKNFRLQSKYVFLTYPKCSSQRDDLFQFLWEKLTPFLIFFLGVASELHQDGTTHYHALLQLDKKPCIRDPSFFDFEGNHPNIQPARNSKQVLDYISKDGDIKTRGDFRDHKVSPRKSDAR
# Description: as §1
# [5] = test system: T5, Rep nickase domain of faba bean necrotic yellows virus
# T5 sequence (residues 1-98, tag not shown): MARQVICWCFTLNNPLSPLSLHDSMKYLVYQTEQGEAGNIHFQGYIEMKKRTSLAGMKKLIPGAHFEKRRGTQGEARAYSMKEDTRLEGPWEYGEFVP
# Description: as §1
# [6] = test system: T6, Rep nickase domain of maize striate mosaic virus
# T6 sequence (residues 1-117, tag not shown): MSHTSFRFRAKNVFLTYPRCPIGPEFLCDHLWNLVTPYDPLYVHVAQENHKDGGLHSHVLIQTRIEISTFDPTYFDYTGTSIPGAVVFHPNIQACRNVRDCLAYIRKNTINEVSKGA
# Description: as §1
# [7] = test system: T7, Rep nickase domain of porcine circovirus 2
# T7 sequence (residues 2-116, tag not shown): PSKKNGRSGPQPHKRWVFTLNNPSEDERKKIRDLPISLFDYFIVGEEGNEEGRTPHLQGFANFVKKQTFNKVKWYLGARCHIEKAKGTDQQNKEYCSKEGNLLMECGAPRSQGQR
# Description: as §1
# [8] = test system: T8, Rep nickase domain of tomato golden mosaic virus
# T8 sequence (residues 1-124, tag not shown): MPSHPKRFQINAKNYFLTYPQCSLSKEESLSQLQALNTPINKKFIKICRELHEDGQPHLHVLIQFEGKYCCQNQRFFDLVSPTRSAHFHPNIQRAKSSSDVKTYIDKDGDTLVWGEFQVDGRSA
# Description: as §1
# [9] = test system: T9, Rep nickase domain of tomato yellow leaf curl virus
# T9 sequence (residues 1-136, tag not shown): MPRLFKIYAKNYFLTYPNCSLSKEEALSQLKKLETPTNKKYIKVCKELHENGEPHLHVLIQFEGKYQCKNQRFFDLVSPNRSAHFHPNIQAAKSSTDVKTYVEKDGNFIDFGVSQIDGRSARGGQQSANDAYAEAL
# Description: as §1
# [10] = test system: T10, Rep nickase domain of wheat dwarf virus
# T10 sequence (residues 1-137, tag not shown): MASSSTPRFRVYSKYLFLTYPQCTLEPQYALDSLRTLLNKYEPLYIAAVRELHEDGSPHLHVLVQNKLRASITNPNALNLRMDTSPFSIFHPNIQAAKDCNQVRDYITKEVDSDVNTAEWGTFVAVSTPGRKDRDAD
# Description: as §1
Sequence,uncleaved DNA left (log2) [1],uncleaved DNA left (log2) [2],uncleaved DNA left (log2) [3],uncleaved DNA left (log2) [4],uncleaved DNA left (log2) [5],uncleaved DNA left (log2) [6],uncleaved DNA left (log2) [7],uncleaved DNA left (log2) [8],uncleaved DNA left (log2) [9],uncleaved DNA left (log2) [10]
ATACTCA,0.0863,0.0749,-0.0895,-1.53,0.0322,-0.503,-0.0242,0.0865,0.0696,0.0964
CTGGATA,-0.00161,-0.0092,0.137,0.861,0.0642,1.12,0.0657,-0.00224,-0.0668,0.00995
GGGCGCA,-0.0541,0.0642,0.759,1.74,0.0327,2.1,0.252,0.0996,0.0372,0.0937
GCCCAGC,0.105,0.0977,-0.0535,0.224,0.232,-0.387,0.249,0.108,0.135,0.127
CGCCATC,-0.103,-0.162,0.0263,0.0888,-0.0771,-0.376,-0.0643,-0.185,-0.0185,-0.0773
TAGGCTC,0.0616,0.106,0.184,0.077,0.0865,0.519,-0.161,0.0838,0.0015,-0.0164
AGGCAGA,0.0189,-0.056,0.403,0.856,0.0965,0.377,0.205,0.0832,0.0666,0.0806
GCCATCA,-0.00306,0.0946,0.0678,0.227,-0.0275,-0.0159,0.0464,0.0519,0.114,0.0242
ATGATCT,0.0103,-0.0221,-0.0138,-1.69,-0.0393,-0.191,-0.364,0.0498,-0.0113,0.0199
ACCAATG,0.0592,0.0531,-0.79,-0.353,0.0117,-1.01,0.104,0.0153,0.0773,-0.122
ATGGTAG,-0.111,-0.0293,-0.618,-0.449,0.0675,-1.16,0.218,-0.0315,0.0284,-0.0774
GTAGGTT,0.14,0.0732,0.287,0.685,0.0299,1.75,0.0207,0.0979,-0.116,-0.0683
CGAGAGG,0.0638,0.192,0.193,0.794,0.0958,0.619,0.214,0.231,0.22,0.184
ATGCTAC,-0.943,-0.0918,-0.681,-2.25,-0.0885,-0.973,-0.566,-0.188,-0.0497,-0.16
TGCAGGT,0.0143,0.00926,0.187,0.953,-0.0455,1.37,0.117,0.0268,-0.138,0.00814
CGCGCGG,-0.0838,-0.0321,0.445,1.15,-0.1,1.59,0.156,0.0677,-0.274,-0.125
TGAAAAG,0.0978,0.0325,-0.552,-0.545,0.0911,-1.03,0.14,-0.0213,0.0205,0.00806
AAGATTT,0.0897,-1.21,-0.16,-2.33,-0.489,0.649,-3.7,0.107,0.0421,0.115
CCACATT,0.183,0.00755,-0.462,-2.12,0.22,-0.254,-0.226,0.00575,0.283,-0.00148
GATTGAG,0.0759,0.0848,-0.712,0.524,0.0846,-0.514,0.0895,0.0336,0.121,-0.0286
TGCCGCT,-0.0546,-0.151,-0.179,-0.863,0.0149,-0.868,-0.0819,-0.263,-0.144,-0.0883
TGGTATT,-3.29,-1.78,0.162,-1.39,-1.94,1.42,-3.44,-0.131,0.104,-0.2
TGACTTA,0.117,0.137,0.12,0.277,0.12,0.916,-0.0573,0.0554,0.0401,0.0554
TTGCAAA,0.124,0.212,-0.215,0.0604,0.0756,-0.67,0.274,0.171,0.251,0.282
CGACTAA,-0.0543,0.00383,-0.025,0.65,-0.105,1.22,-0.059,-0.108,-0.0478,0.122
CTAATAA,-0.00135,0.228,0.0178,-0.314,0.122,-0.658,0.23,0.0805,0.0921,0.213
TGAGCGC,0.0184,-0.0286,-0.445,-0.381,-0.0428,-0.912,-0.00257,-0.0756,-0.091,-0.112
CTGTAAA,0.0885,0.133,-0.133,-0.146,0.0933,-0.669,0.0832,0.00197,0.214,0.000272
CTAGTTC,0.0274,0.0891,0.102,-1.01,-0.0692,-0.573,-0.014,-0.11,0.0394,-0.0677
TGCACCG,0.0457,0.081,-0.688,-0.495,0.113,-0.954,0.14,0.105,0.00889,-0.0589
